{"source": "paper PMC12136788", "binders": {"B1": {"name": "chrX:12253581:12253582:-_ENSMUSG00000064127_ENSMUST00000096495|mus_mus|motif|central (ssRNA)", "RNA": "GGGAGUUCUACAGUCCGACGAUCUUAAAAAGUCCCUGACUGGCUUCAAGAGACAGUACAGUACUCUUAAAAAGAAAUCCGGUUGAGAUGUACCAGUGCCAGAAACUCCACUGAACACUGGACAGGCACUGCACUGUGGACUUUCAACAGAGGAUUGAGCAUCA"}, "B2": {"name": "chr1:90180419:90180420:+_ENSG00000171488_ENST00000370454|hu_hu|motif|central (ssRNA)", "RNA": "GGGAGUUCUACAGUCCGACGAUCAGCCCGACAGUCACCCAGUUCAGGAGGGAGGAUUUCAAAGUGAUUACCUUUUACAUCGGAGUAGGAAAGAAAUAGCAAAUUUCCAAUUUUCGGUGAAAGUACAGAUAGGCUGUUUUUUCCCAACAGAGGAUUGAGCAUCA"}, "B3": {"name": "160201109_160201584_1196_CDS_ENSG00000120438_ENST00000392168|human|control|control (ssRNA)", "RNA": "GGGAGUUCUACAGUCCGACGAUCAGCCUUAGUAUUUUUGAUUAAGAUCAGCUCAUCAUCACAAAUUCUCUCCUGUACCACUUCUUCUGCCUGUCCCAACAUUGCAGCUUCAAAAGUUUCUUCACCUUCCAAAUUGGCCAGGGUCAACAGAGGAUUGAGCAUCA"}, "B4": {"name": "chr18:52893488:52893489:-_ENSG00000196628_ENST00000354452|hu_hu|hu_hu_hu_mus_True|1_98 (ssRNA)", "RNA": "GGGAGUUCUACAGUCCGACGAUCUAUUUAGACCAUUUCAAUGGAUUUAUGGCAUUUACUCAGUGCUGAUAGGUGGAAAAACUACUUCAACAGGGAUUUUUUUUUUCCUUAAUACAUGCCAAGAUUGUGUGGCUGUCAAAAAUACAACAGAGGAUUGAGCAUCA"}, "B5": {"name": "chr5:145543945:145543946:-_ENSG00000133706_ENST00000545646|hu_hu|hu_hu_hu_mus_True|98_108 (ssRNA)", "RNA": "GGGAGUUCUACAGUCCGACGAUCCUGAAUAGCCAGUGGCGGGAAAUAAUCAAGCCAGUGCUCUGCUUCAGAAAACUUCACUAUGUCGUCAUCAGAGAGCCCAAGGGAUUUCAUAAUGUCCCACUGGUACUUAGAAGAUCCUGCCAACAGAGGAUUGAGCAUCA"}, "B6": {"name": "chr6:149508383:149508384:+_ENSMUSG00000003452_ENSMUST00000086829|mus_mus|FALSE|FALSE (ssRNA)", "RNA": "GGGAGUUCUACAGUCCGACGAUCCUCCUUUAGGCAAAUAUAAAUUAUAAUUUCCAAAUAAGUCUUUUCUUCAUUCCUUUAUAGAUUUAUAUUCUCUAGAAGUUUUCAAAAUUCAUUUUUCCUCCUCUCUCUUCUUUUAAAUCCCAACAGAGGAUUGAGCAUCA"}, "B7": {"name": "chr7:87731985:87731986:-_ENSMUSG00000030527_ENSMUST00000122255|mus_hu|FALSE|FALSE (ssRNA)", "RNA": "GGGAGUUCUACAGUCCGACGAUCAAAUAGUUUACUCUGAAGUAUGCAGCUGCUUCAAAUGCUGAGGACCACAACUGGUUUUGUUACAAAGGCCGCAGUGAGUGCAGGCUCACGUGCUGUGGGCCAGGGCGACCCUGCCCGUGGCAACAGAGGAUUGAGCAUCA"}, "B8": {"name": "chr9:95013113:95013114:-_ENSG00000196305_ENST00000443024|hu_hu|hu_hu_hu_mus_False|8_98 (ssRNA)", "RNA": "GGGAGUUCUACAGUCCGACGAUCCUCAGUCAGAAAGGGUGUGUAGGGGGCCAUCAGUCUGCACAGAGAAAGCAGGACACUGAACAGUGUCUCCAGAGCCAUGACACAGUCUUCCACCCCACUCUCACCCUUUAAUCUCCUCCUCAACAGAGGAUUGAGCAUCA"}, "B9": {"name": "chr14:54894545:54894546:-_ENSG00000100528_ENST00000216416|hu_mus|motif|central (ssRNA)", "RNA": "GGGAGUUCUACAGUCCGACGAUCCUUCAUUGGUGGCGUUUUGCAUGCACUUAACUGGACCGAUUCUUCUGUGUUGUUCGGAGAGCUCACCAGAACAUAGAUCAUGCCGUAUAGGUAGUAAAAAAACGCUAGAAGGUAAAAAGCCAACAGAGGAUUGAGCAUCA"}, "B10": {"name": "chr1:120459247:120459248:-_ENSG00000134250_ENST00000256646|hu_mus|FALSE|FALSE (ssRNA)", "RNA": "GGGAGUUCUACAGUCCGACGAUCCCGAGCCACAUCCCGGGGAAGGCGGUCCAUGUGGUCAGUGAUGUCCCGGUUGGCAAAAUGGUCUAACAGGAUUUUGGCCGCUUCAUAACUUCCCUCUCGGGCAGCAAGAAACAAAGGUGUCAACAGAGGAUUGAGCAUCA"}, "B11": {"name": "chr16:78329203:78329204:+_ENSMUSG00000022865_ENSMUST00000023572|mus_hu|FALSE|FALSE (ssRNA)", "RNA": "GGGAGUUCUACAGUCCGACGAUCUACUCGGCCUUUCAGAUCUGGAUAGUAGUCAUCAUAAAUUUUGUCUCCAGAAUAUAAAAUAAUCACUUGAUCCACCUUCUGAUUAUCAGCUGGUGAUAUCAGCCACUCGAUGUCCAGCGGCAACAGAGGAUUGAGCAUCA"}, "B12": {"name": "chr22:32879901:32879902:+_ENSG00000100225_ENST00000397426|hu_mus|FALSE|FALSE (ssRNA)", "RNA": "GGGAGUUCUACAGUCCGACGAUCCUCUUCCAUACUCAUGGCAUCCUGAAUUGACUCAGCUUCAACAUUUUGACUAGGCCCUUCCAUACUGUCAUCAGUCCAGGCAUCAAAUGGGGUGGCCUGUCCUUGGGAUGAAUCAGUCCCCAACAGAGGAUUGAGCAUCA"}, "B13": {"name": "chr1:213174215:213174216:-_ENSG00000174606_ENST00000366962|hu_hu|motif|central (ssRNA)", "RNA": "GGGAGUUCUACAGUCCGACGAUCUGUCUUUUCUACUUUUGGUACCUGCUGUACCUCAUACACACAGUUCUGUGAGAUACCGGGGUUUGGGGGCCAAAUUGGAAUAGAUAAAAUUCUUUGUCCCCGUGAAGACUGUUCCUGGCCCAACAGAGGAUUGAGCAUCA"}, "B14": {"name": "chr7:135612270:135612271:-_ENSG00000105887_ENST00000393085|hu_mus|hu_hu_hu_mus_False|58_108 (ssRNA)", "RNA": "GGGAGUUCUACAGUCCGACGAUCGUUUCUGAGAUGUAUGUUAAAUAGUACUUCAGUGGAAAACAAAACUUAACCUUUCGCUAAUGCGUGUUGUACCAAAAGCAGACAUUUUAGCUUCAUUUAUUCAAAAAUAUUAACAUUAAGCAACAGAGGAUUGAGCAUCA"}, "B15": {"name": "chr6:51416610:51416611:-_ENSMUSG00000004980_ENSMUST00000090002|perfect_dup|motif|central (ssRNA)", "RNA": "GGGAGUUCUACAGUCCGACGAUCCCUAUCGGUAAUUAUUUCAAUAGUAUCAAUUUUUCCAUACUCUUCAAAGUAAUCUCGGAGGUGGUGUUCCUCAGUAUCUUCCUUAAUUCCACCAACAAACAGCUUCUUCACAGUCACAUGCAACAGAGGAUUGAGCAUCA"}, "B16": {"name": "42872735_42873035_6896_CDS_ENSG00000105429_ENST00000334370|human|control|control (ssRNA)", "RNA": "GGGAGUUCUACAGUCCGACGAUCCAGGAAGGCCCAGGAGGCCCCCGGACGCCCACAUGUCAGCCCAUCACGGGGGCCGCUGAGUCCACCCUCCAUGCAGCGGCCACCCCCAUCCUGGCCCCCCCAGGCACACCAGCCGCAAUGCAACAGAGGAUUGAGCAUCA"}, "B17": {"name": "chr5:34519336:34519337:-_ENSMUSG00000037235_ENSMUST00000042701|mus_mus|FALSE|FALSE (ssRNA)", "RNA": "GGGAGUUCUACAGUCCGACGAUCGGUGGUCAUUAAGGCCCCUACACGGAUCCUGCCGAGAUUUGUAGAAAUGAUAUUUAAUACUUCUGGAAUGAUUAGGAAUCUGAGAACAGAUUGUGGGUGGCUACGCUGGACUCCAGGAUGCAACAGAGGAUUGAGCAUCA"}, "B18": {"name": "chr11:22899103:22899104:+_ENSMUSG00000007739_ENSMUST00000173867|mus_mus|motif|central (ssRNA)", "RNA": "GGGAGUUCUACAGUCCGACGAUCUAAAAUAUAGGCUCUCUCCUCUCGAAGCACUCGAUCCAUCUGGGCAUAGUCAGAUACGGCGGUUUGAUUAUCCAUAUCUGUUUUAGGAGCAGAUAAGCAAAACUGAAUAAGCCCAAUCUUCAACAGAGGAUUGAGCAUCA"}, "B19": {"name": "81579510_81579630_3752_3pUTR_ENSG00000153956_ENST00000356860|human|control|control (ssRNA)", "RNA": "GGGAGUUCUACAGUCCGACGAUCACACGUUUAAGGAUCUGACACCCUGACAUGCAGCCAGUGGGUGCCUUAGGAGUCUGCGCCUUAGUGUUAUGCCAUGGAACAGGCCCAGCUAAUGUUUGUCUGAUUUUAUAGCUGACCCUACAACAGAGGAUUGAGCAUCA"}, "B20": {"name": "chr11:29607950:29607951:+_ENSMUSG00000020458_ENSMUST00000102843|mus_mus|FALSE|FALSE (ssRNA)", "RNA": "GGGAGUUCUACAGUCCGACGAUCGGGUGAGGAAUCAUCCACGAGCUCACAGUGAUCAGGCACCGACUUCUCAAAUUUUGCUAUUUCUGAAUAAUUAGAGAACUCUGGACUUGGCUCAGUGGAGAGCUUUGUUUCUUUAAUUAACAACAGAGGAUUGAGCAUCA"}, "B21": {"name": "chr1:212156110:212156111:-_ENSG00000143493_ENST00000366992|hu_mus|motif|central (ssRNA)", "RNA": "GGGAGUUCUACAGUCCGACGAUCUCCAUGAGCUGCGAUGCCCCUGUUGCUAUGGUAACAGCAUUCUUGAGCUAAUUUGACGGAAUCAGAAGAUCUGGGGGAAGAGCCUACAUUUCCGGGAACUACACUGAAGUAAUGUUUAAUCAACAGAGGAUUGAGCAUCA"}, "B22": {"name": "chr14:28285125:28285126:+_ENSMUSG00000040651_ENSMUST00000022450|mus_mus|FALSE|FALSE (ssRNA)", "RNA": "GGGAGUUCUACAGUCCGACGAUCCUCAGAAAGGCGAUUCAUCUUCUCUUGUGCUGAAAAGAUAGGUGUGGAAAUUGCACUAACAUAUGAAACAUUCUUCUCCUUCAAAAUCUCUUCUACCUUCCUAGAGAAAAGAUGGAACUCCAACAGAGGAUUGAGCAUCA"}}, "note": "The other results are listed elsewhere or left out."}
{"molecular_target": "T1, UNK ZnF1-3 (human, UniProt Q9C0B0 31-174)", "T1 sequence": "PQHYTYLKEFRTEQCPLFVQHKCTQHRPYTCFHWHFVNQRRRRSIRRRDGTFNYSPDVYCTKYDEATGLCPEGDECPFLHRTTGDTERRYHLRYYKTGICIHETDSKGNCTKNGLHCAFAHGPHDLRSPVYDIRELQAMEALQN", "assay": "nsRBNS (natural sequence RNA bind-n-seq); RBNS binding buffer (assumed for nsRBNS): 25 mM Tris pH 7.5, 150 mM KCl, 3 mM MgCl2, 0.01% Triton X-100, 500 ug/ml BSA, 20 U/ml SUPERase-In, 4 C; UNK is unkempt and MSI1 is Musashi-1; names of the RNAs are library labels; protein concentration not given here; high values mean tight binding", "units": {"binding signal": "enrichment R"}}
{"binder": "B1", "binding signal": 0.708}
{"binder": "B2", "binding signal": 1.63}
{"binder": "B3", "binding signal": 1.34}
{"binder": "B4", "binding signal": 0.999}
{"binder": "B5", "binding signal": 1.21}
{"binder": "B6", "binding signal": 1.31}
{"binder": "B7", "binding signal": 0.778}
{"binder": "B8", "binding signal": 0.942}
{"binder": "B9", "binding signal": 1.38}
{"binder": "B10", "binding signal": 1.12}
{"binder": "B11", "binding signal": 1.1}
{"binder": "B12", "binding signal": 1.14}
{"binder": "B13", "binding signal": 0.761}
{"binder": "B14", "binding signal": 1}
{"binder": "B15", "binding signal": 1.4}
{"binder": "B16", "binding signal": 0.97}
{"binder": "B17", "binding signal": 1.17}
{"binder": "B18", "binding signal": 1.07}
{"binder": "B19", "binding signal": 0.315}
{"binder": "B20", "binding signal": 1.08}
{"binder": "B21", "binding signal": 1.55}
{"binder": "B22", "binding signal": 1.01}
